From publication PMC9561284
These are yes or no findings as the source states them, for the method shown. In cells and extracts the contact can be indirect. Some entries that bind do so weakly or less than the wild type. For some of these results: Sequences can lack the tags named with a protein. Values belong to the molecule of their own block, whether it stands above or below them.

Chains of the proteins cited; added tags and fusions are not shown.
UniProt O00567: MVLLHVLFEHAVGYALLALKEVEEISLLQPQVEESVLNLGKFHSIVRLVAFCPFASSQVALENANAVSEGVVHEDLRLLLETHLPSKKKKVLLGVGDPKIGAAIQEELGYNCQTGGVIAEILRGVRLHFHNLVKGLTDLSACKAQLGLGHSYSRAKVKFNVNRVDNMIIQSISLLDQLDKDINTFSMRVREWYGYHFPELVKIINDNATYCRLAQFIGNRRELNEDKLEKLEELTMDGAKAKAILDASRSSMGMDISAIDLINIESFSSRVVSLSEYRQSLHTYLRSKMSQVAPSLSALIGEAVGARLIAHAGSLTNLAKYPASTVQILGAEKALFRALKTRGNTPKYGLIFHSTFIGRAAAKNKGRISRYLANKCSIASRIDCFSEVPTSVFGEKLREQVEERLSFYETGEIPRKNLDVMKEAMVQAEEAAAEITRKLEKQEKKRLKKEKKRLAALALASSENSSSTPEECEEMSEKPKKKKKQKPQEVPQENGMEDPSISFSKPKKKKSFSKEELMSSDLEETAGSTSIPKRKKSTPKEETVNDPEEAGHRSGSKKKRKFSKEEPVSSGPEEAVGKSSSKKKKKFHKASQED
UniProt Q9UHK0: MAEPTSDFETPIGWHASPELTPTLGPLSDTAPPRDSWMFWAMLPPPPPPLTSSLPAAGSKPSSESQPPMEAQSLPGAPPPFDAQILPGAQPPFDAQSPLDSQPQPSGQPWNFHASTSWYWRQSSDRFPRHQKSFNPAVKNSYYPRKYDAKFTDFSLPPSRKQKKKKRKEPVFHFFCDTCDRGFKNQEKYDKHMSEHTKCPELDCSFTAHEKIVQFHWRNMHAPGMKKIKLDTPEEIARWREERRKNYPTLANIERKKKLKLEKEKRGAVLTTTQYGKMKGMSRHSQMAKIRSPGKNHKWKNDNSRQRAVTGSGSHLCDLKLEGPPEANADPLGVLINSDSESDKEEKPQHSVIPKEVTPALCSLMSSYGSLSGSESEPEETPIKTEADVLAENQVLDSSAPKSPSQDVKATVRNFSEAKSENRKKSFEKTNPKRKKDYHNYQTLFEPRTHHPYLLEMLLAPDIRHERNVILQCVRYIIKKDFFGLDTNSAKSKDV
UniProt Q9Y265: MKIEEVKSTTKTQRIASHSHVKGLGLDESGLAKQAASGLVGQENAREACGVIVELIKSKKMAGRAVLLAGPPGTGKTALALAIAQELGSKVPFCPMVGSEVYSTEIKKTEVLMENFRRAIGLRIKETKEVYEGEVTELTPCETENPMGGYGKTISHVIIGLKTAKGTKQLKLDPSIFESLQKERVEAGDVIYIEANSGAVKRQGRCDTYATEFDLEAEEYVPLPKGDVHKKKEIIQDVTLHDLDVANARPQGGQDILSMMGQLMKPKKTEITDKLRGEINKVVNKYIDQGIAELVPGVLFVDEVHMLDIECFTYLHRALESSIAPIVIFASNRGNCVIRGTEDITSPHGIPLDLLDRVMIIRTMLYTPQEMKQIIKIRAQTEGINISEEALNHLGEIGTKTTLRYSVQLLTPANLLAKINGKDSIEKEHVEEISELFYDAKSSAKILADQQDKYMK

Legend:
[1] = target: T1, FLAG-tagged NOP2/NSUN1 WT (human) (UniProt P46087); assay: co-IP; anti-FLAG IP from nuclear and nucleolar extracts of HEK293T cells expressing FLAG-NOP2/NSUN1 WT (mock as control); Western blot
T1 sequence: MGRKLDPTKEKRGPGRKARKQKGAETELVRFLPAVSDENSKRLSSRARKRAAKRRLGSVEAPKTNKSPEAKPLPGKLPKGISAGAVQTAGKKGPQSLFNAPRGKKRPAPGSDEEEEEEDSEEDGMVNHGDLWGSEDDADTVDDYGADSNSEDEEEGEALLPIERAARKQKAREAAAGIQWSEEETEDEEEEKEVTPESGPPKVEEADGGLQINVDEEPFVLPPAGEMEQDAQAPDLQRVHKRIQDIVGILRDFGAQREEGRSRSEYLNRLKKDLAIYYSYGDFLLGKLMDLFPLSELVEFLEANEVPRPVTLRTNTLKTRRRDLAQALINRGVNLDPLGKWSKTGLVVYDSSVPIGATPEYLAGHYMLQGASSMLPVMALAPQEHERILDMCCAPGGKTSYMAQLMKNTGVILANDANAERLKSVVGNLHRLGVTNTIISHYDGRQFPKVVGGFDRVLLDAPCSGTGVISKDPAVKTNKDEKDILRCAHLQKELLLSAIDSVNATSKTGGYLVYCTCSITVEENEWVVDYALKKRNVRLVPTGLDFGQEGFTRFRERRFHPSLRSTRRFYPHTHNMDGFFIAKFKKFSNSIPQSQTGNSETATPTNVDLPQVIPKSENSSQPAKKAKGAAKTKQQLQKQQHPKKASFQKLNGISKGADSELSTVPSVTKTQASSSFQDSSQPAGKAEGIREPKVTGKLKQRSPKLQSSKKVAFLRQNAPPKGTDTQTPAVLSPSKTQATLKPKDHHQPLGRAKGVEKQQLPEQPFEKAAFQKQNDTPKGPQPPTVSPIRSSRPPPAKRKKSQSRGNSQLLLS

[2] = target: T1, FLAG-tagged NOP2/NSUN1 WT (human); assay: co-IP; anti-FLAG IP from lysate of HEK293T cells expressing FLAG-NOP2/NSUN1 WT (mock-transfected cells as control); ELB buffer (0.5% NP-40, 50 mM HEPES pH 7.2, 250 mM NaCl, 2 mM EDTA), protein G agarose, Western blot
[3] = target: NOP56 (human (endogenous in HEK293T and HCT116)) (UniProt O00567); assay: co-IP; anti-NOP56 IP of endogenous proteins from HEK293T lysate (normal rabbit IgG as control); also from cells transfected with control or NOP2 siRNA for 72 h; ELB buffer, Western blot
[4] = target: NUFIP1 (human (endogenous in HCT116)) (UniProt Q9UHK0); assay: co-IP; IP of endogenous RUVBL1, NUFIP1 or La protein from sonicated HCT116 lysate (1% NP-40, 50 mM Tris-HCl pH 7.5, 150 mM NaCl, 2 mM MgCl2; normal rabbit IgG as control); Western blot
[5] = target: RUVBL1 (human (endogenous in HCT116)) (UniProt Q9Y265); assay: as above
[6] = target: T2, La protein (human (endogenous in HCT116)) (UniProt P05455); assay: as above
T2 sequence: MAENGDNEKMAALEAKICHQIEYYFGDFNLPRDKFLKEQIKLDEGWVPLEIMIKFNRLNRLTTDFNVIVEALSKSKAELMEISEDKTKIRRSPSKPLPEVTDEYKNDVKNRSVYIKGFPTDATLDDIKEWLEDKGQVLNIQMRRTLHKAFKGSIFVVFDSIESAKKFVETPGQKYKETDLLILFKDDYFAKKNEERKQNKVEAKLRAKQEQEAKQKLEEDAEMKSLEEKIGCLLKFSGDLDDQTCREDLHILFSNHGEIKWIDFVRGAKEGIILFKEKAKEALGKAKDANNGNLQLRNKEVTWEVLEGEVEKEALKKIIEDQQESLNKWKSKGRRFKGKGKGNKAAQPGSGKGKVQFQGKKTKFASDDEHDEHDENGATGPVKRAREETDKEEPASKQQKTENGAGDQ

[7] = target: NOP56 (human (endogenous in HEK293T and HCT116)) (UniProt O00567); assay: co-IP; anti-NOP56 IP of endogenous proteins from nuclear and nucleolar extracts of HCT116 cells (normal rabbit IgG as control); Western blot

binding [1]: binds | binding [2]: binds
Molecule: NOP56 (from UniProt O00567 1-594)

binding [3]: binds | binding [1]: binds | binding [2]: binds
B1: Fibrillarin (enzyme, UniProt P22087 1-321)
chain: MKPGFSPRGGGFGGRGGFGDRGGRGGRGGFGGGRGRGGGFRGRGRGGGGGGGGGGGGGRGGGGFHSGGNRGRGRGGKRGNQSGKNVMVEPHRHEGVFICRGKEDALVTKNLVPGESVYGEKRVSISEGDDKIEYRAWNPFRSKLAAAILGGVDQIHIKPGAKVLYLGAASGTTVSHVSDIVGPDGLVYAVEFSHRSGRDLINLAKKRTNIIPVIEDARHPHKYRMLIAMVDVIFADVAQPDQTRIVALNAHTFLRNGGHFVISIKANCIDSTASAEAVFASEVKKMQQENMKPQEQLTLEPYERDHAVVVGVYRPPPKVKN

binding [4]: binds | binding [5]: binds | binding [6]: no binding | binding [7]: binds | binding [3]: binds
B2: endogenous NOP2/NSUN1 (enzyme, UniProt P46087 1-812)
chain: T1 sequence
